These results are taken from PubChem BioAssay AID1625 (Sanford-Burnham Center for Chemical Genomics, 2009).

This is one part of the list. The main result of the screen is listed elsewhere. These columns were measured beside it and carry no call. Compounds called inactive in the main read-out are mostly missing here.

This assay is described as follows: up-regulation of insulin promoter-GFP reporter – imaging, high-content screening, mouse beta cells (AID 1625).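 Also: total cells summed across four imaged fields per well.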 As to conditions: MIN6 insulin promoter-GFP reporter, measured here: cytotoxicity, nuclei count, at 5 µM.
With `CCOc1ccc(OCCCCn2ccnc2)cc1`, the cell count was 1110 cells.

For the compound `COc1ccc(CNC(=S)N/N=C/c2ccc(O)c(OC)c2)cc1`, the cell count came to 492 cells.

As to `O=C(COc1ccccc1)N1CCN=C1c1ccccc1`, the cell count came to 1350 cells.

`Cc1cc(/C=C2\SC(=S)NC2=O)c(C)n1C1CC1`: the cell count is 1500 cells.

`CCOC(=O)Cn1c2ccc(F)cc2c2nc(C)sc21` yielded a cell count of 1360 cells.

`O=C(NCC1CCCO1)c1ccc(CS(=O)(=O)c2c(Cl)cccc2Cl)o1` (stereo not drawn) displayed a cell count of 260 cells.

As for `Cn1c(=O)c(Nc2ccc(Cl)cc2)c2c3c(cccc31)C(=O)c1ccccc1-2`, the cell count stood at 1180 cells.

`CCNC(=O)CC1C(=O)N(c2cccc(OC)c2)C(=O)N1CCOC` (stereo not drawn) gave a cell count of 467 cells.

The compound `O=C(O)/C=C/c1coc2ccc(F)cc2c1=O` showed a cell count of 432 cells.

With `Cn1c(=O)n(C)c2cc(NC(=O)COc3ccc(Cl)cc3)ccc21`, the cell count was found to be 1200 cells.

Consider `Brc1ccc(Oc2nsnc2N2CCOCC2)cc1`, for which the cell count was 1300 cells.

`CC(=O)n1cc(N(C(=O)CCl)c2ccc(Cl)cc2)c2ccccc21` yielded a cell count of 280 cells.

In the case of `Cc1cc(N=NC(=O)c2ccccc2)ccc1O`, the cell count is 328 cells.

Consider `CCOC(=O)c1ccc(NC(=O)Cn2ncc(Cl)c(Cl)c2=O)cc1`, for which the cell count came to 213 cells.

For the compound `O=c1oc2c3c4c(cc2c(C(F)(F)F)c1CCN1CCOCC1)CCCN4CCC3`, the cell count stood at 1310 cells.

Take `CCOc1ccc(Oc2cc(NC(=O)c3ccco3)cc([N+](=O)[O-])c2)cc1`: the cell count was 490 cells.

For the compound `Cc1ccc(NC(=O)CN(C)C(=O)Cn2ncc(Cl)c(Cl)c2=O)cc1`, the cell count was determined as 385 cells.

`CCN1/C(=C/C=C/c2oc3ccc4ccccc4c3[n+]2CC)Oc2ccc3ccccc3c21` showed a cell count of 550 cells.

The compound `CCn1c(SCC(=O)c2c[nH]c3ccccc23)nc2cc(S(=O)(=O)N3CCOCC3)ccc21` showed a cell count of 1500 cells.

The compound `COc1ccccc1NC(=O)/C=C1\SCC(=O)N1C` had a cell count of 1170 cells.

In turn, `CCC(NC(=O)Nc1ccc(O)cc1)(C(F)(F)F)C(F)(F)F` came in with a cell count of 473 cells.

As for `Cc1ccc(-c2cc[n+](Cc3ccccc3)cc2)cc1`, the cell count was determined as 401 cells.

`CC1CN(C(=O)CCn2c(=O)oc3ccccc32)CC(C)O1` (stereo not drawn) yielded a cell count of 1170 cells.

Regarding `c1ccc(-n2ncc3c(N4CCN(c5ccccn5)CC4)nc(N4CCCCCC4)nc32)cc1`, the cell count was found to be 861 cells.

As for `Cn1c(C(=O)N2CCC(C(=O)N3CCN(Cc4ccc5c(c4)OCO5)CC3)CC2)cc2sccc21`, the cell count was 1940 cells.

Compound `CCCCN1C(=O)/C(=C/C=C2\Oc3ccccc3N2CC)SC1=S` came in with a cell count of 1560 cells.

For the compound `CN(c1cccc(Cl)c1)S(=O)(=O)c1cccc(C(=O)NC2=NCCS2)c1`, the cell count turned out to be 1550 cells.

Compound `Cc1ccc(-n2c(O)c(/C=N/NC(=O)C3COc4ccccc4O3)c3ccccc3c2=O)cc1` (stereo not drawn) returned a cell count of 1260 cells.

Regarding `COc1c(CC=C(C)C)cc(C2CC(=O)c3c(O)cc(O)cc3O2)cc1CC=C(C)C` (stereo not drawn), the cell count amounted to 200 cells.

In the case of `CC(C)(C)NC(=S)N/N=C\c1ccc(-c2ccc([N+](=O)[O-])cc2)o1`, the cell count was 1020 cells.

`CCCNC(=O)c1ccc2c(=O)c(O)c(-c3cccc(Br)c3)[nH]c2c1` returned a cell count of 181 cells.

For `O=C(NCc1cccs1)c1ccc(N2CCCCC2)nc1`, the cell count stood at 1120 cells.

`CCN(CC)C(=O)c1sc2nc(-c3cccs3)cc(-c3cccs3)c2c1N` had a cell count of 1360 cells.

For the compound `CN1/C(=C\C=C2/SC(=S)NC2=O)C(C)(C)c2ccccc21`, the cell count turned out to be 704 cells.

Consider `CCOC(=O)C1CCCN(c2nc(C)nc3c2oc2ccccc23)C1` (stereo not drawn), for which the cell count came out at 435 cells.

In turn, `CCCn1c(SCC(=O)NC2CCCCC2)nnc1-c1ccncc1` came in with a cell count of 1170 cells.

On to `Cc1cccc[n+]1CC(=O)/C=C1\N(C)c2ccccc2C1(C)C`, for which the cell count was 486 cells.

`CC1CCCC(NC(=O)C2CCCN2S(=O)(=O)c2cccc3nsnc23)C1C` (stereo not drawn) showed a cell count of 332 cells.

`CN(C)c1ccc(/C=C/c2ccc3ccccc3[n+]2C)cc1` gave a cell count of 363 cells.

`O=C1c2cccc3c(N4CCCCC4)ccc(c23)C(=O)N1c1ccc(O)cc1` came in with a cell count of 1140 cells.

The compound `CCN(CC)c1ccc(/C=N/NC(=O)c2cccc(S(=O)(=O)Nc3ccccc3OC)c2)c(O)c1` yielded a cell count of 477 cells.

`CCCN1C(=O)/C(=C/c2c(NCCCOCC)nc3c(C)cccn3c2=O)SC1=S` returned a cell count of 983 cells.

`CCOC(=O)CC1C(=O)NCCN1c1nc2c(C)cccn2c(=O)c1/C=C1\SC(=S)N(CC(C)C)C1=O` (stereo not drawn) registered a cell count of 956 cells.

For the compound `COc1ccc(-c2cn(-c3ccc(Cl)cc3)c3[n+]2CCCCC3)cc1`, the cell count was found to be 242 cells.

On to `CCOC(=O)C1C(=O)C=C(/C=C/c2ccc(N(C)C)cc2)CC1c1ccccc1` (stereo not drawn), for which the cell count came out at 1480 cells.

For the compound `CCc1nc(SCC(=O)N2CCOCC2)c2c(=O)n(C)c(=O)n(C)c2n1`, the cell count worked out at 493 cells.

In the case of `CCN(CC)c1ccc2c(c1)CCCN2`, the cell count was found to be 340 cells.

`Cc1ccc(-n2c(-c3ccccc3)c[n+]3c2CCC3)cc1` yielded a cell count of 475 cells.

As to `Cc1cc(C)c(NC(=O)c2ccc(S(=O)(=O)N3CCOCC3)cc2)c(C)c1`, the cell count was found to be 355 cells.

Compound `CCCOc1ccc(C(=O)C(CCC(CNCC)C(=O)c2ccc(OCCC)cc2)CNCC)cc1` (stereo not drawn) yielded a cell count of 155 cells.

For the compound `Cc1c(C(C)C)c(=O)n(-c2ccc(S(=O)(=O)NC3CCCCC3)cc2)n1C`, the cell count came to 498 cells.

As for `CCn1c(C)nc2cc(C(=O)OC(C(F)(F)C(F)F)C(F)(F)C(F)F)ccc21`, the cell count turned out to be 431 cells.

In turn, `CC(=O)c1ccc2cccc3c2c1N=CN3C` had a cell count of 1530 cells.

`CCCc1cc(-n2ccnc2)n2c(nc3ccccc32)c1C#N` returned a cell count of 1900 cells.

`CCc1nnc(NC(=O)C(C)Sc2ccccc2)s1` (stereo not drawn) yielded a cell count of 405 cells.

In turn, `Fc1ccc(C2NCCn3cccc32)cc1` (stereo not drawn) yielded a cell count of 1430 cells.

With `COc1ccc(OCc2n(CC(=O)OC3CC(C)CCC3C(C)C)c3ccccc3[n+]2C)cc1` (stereo not drawn), the cell count was determined as 408 cells.

On to `CCOC(=O)COc1cccc2c(=O)n(CC(=O)NCCc3ccc(OC)c(OC)c3)ccc12`, for which the cell count is 1340 cells.

Compound `Cn1nc(-c2ccc(Cl)cc2)c2cc(C(=O)N3CCN(c4ccccn4)CC3)sc21` had a cell count of 415 cells.

Compound `Cc1ccc(C2CC(C(F)(F)F)n3nc(C(=O)NCc4c(C)nn(C)c4C)c(Cl)c3N2)cc1` (stereo not drawn) came in with a cell count of 289 cells.

In the case of `Nc1ccc(-c2nc3nc(N)nc(N)c3nc2-c2ccc(N)cc2)cc1`, the cell count turned out to be 1330 cells.

Compound `O=C(CNC(=O)c1ccc(F)cc1)N/N=C/c1cn[nH]c1-c1ccccc1` yielded a cell count of 348 cells.

As to `Cn1c(=O)c(NC2CCCCC2)c2c3c(cccc31)C(=O)c1ccccc1-2`, the cell count stood at 1220 cells.

For `CC(=O)Cc1cc(O)c2ccccc2c1OC(=O)c1ccc(Br)cc1`, the cell count is 1340 cells.

As to `CCOC(=O)c1c(NC(=O)CSc2nc3ccccc3s2)sc(C(C)=O)c1C`, the cell count was found to be 310 cells.

As for `CC(=O)c1cccc(NC(=S)NCCC2=CCCCC2)c1`, the cell count stood at 397 cells.

`O=Nc1c(O)n(Cc2ccc(Cl)cc2)c2ccccc12`: the cell count stood at 1360 cells.

As to `CN(C)c1ccc(/C=C/c2cc[n+](C)cc2)cc1`, the cell count amounted to 494 cells.

On to `Cc1cc(N2CCOCC2)nc(NCc2ccccc2)n1`, for which the cell count turned out to be 454 cells.

In turn, `CNc1nc2cc([N+](=O)[O-])c([N+](=O)[O-])cc2nc1NC` returned a cell count of 413 cells.

`CC(C)C(=O)Nc1ccc(C(=O)N2CCCCCC2)cc1`: the cell count stood at 381 cells.

For `Cc1ccc(N2C(=O)C3C(C(=O)c4ccccc4)=NN(c4ccccc4)C3C2=O)cc1` (stereo not drawn), the cell count turned out to be 1480 cells.

`CCc1ccc(NC(=O)c2cc(C(C)C)on2)cc1` returned a cell count of 1410 cells.

As to `CCOC(=O)N1CCN(C(=O)CSCc2ccccc2Cl)CC1`, the cell count stood at 424 cells.

In turn, `CN(Cc1ccccc1)C1=CC(=[N+]2CCCCC2)CC(C)(C)C1` yielded a cell count of 227 cells.

Consider `N=c1c2c3c(sc2nc2n1CCCCC2)CCCCC3`, for which the cell count is 488 cells.

Compound `CN(C(=O)CSc1cc(C(=O)c2nccn2C)c2ccccc2n1)c1ccccc1` gave a cell count of 195 cells.

As to `Cc1[nH]c2ccccc2c1CN1CCc2ccccc2C1`, the cell count turned out to be 445 cells.

In turn, `Cc1ccc(/C=C/C(=O)Nc2ccc([N+](=O)[O-])cc2)o1` returned a cell count of 385 cells.

Consider `O=[N+]([O-])c1cnc(Sc2ccncn2)s1`, for which the cell count turned out to be 390 cells.

Compound `COc1ccc(CN(CC2CCC(C(=O)O)CC2)C(=S)Nc2cccc(C)c2)cc1` (stereo not drawn) came in with a cell count of 1300 cells.

Take `CCOC(=O)c1cc2sc(C)cc2n1CC(=O)Nc1cccc(C)c1C`: the cell count is 314 cells.

`COCCN(CCOC)Cc1cc(=O)oc2cc3c(cc12)CCC3`: the cell count amounted to 1170 cells.

As to `N#CC(C#N)=C1C=C2C=C(N3CCCCC3)CCC2CC1` (stereo not drawn), the cell count stood at 1280 cells.

Turning to `Cc1c(Cl)cccc1NC(=S)NCc1ccc2c(c1)OCO2`, the cell count came out at 381 cells.

With `O=C(/C=C/c1ccc(O)cc1)c1ccc(NC2=C(N3CCCCC3)C(=O)c3ccccc3C2=O)cc1`, the cell count was 322 cells.

Take `Cc1ccccc1NC(=O)/C=C/c1ccc([N+](=O)[O-])s1`: the cell count came to 401 cells.

Compound `O=C(C1CCC(CNS(=O)(=O)c2cccc3cccnc23)CC1)N1CCc2ccccc21` (stereo not drawn) showed a cell count of 221 cells.

`Cc1ccc(-n2nc(C)c(NC(=O)CCl)c2C)cc1C` displayed a cell count of 451 cells.

With `COc1ccccc1-c1n[nH]c2c1[C@H](C)CC[C@H]2C(C)C`, the cell count turned out to be 224 cells.

With `c1ccc2c(c1)CSc1sccc1C2=C1CCNCC1`, the cell count came out at 470 cells.

`COc1ccc(NC2=Nc3ccccc3N3C2=Nc2c(c(C)nn2-c2ccc(C)cc2)C3c2cccnc2)cc1` (stereo not drawn) had a cell count of 1010 cells.

In turn, `O=C(Sc1cccc2cccnc12)c1ccc(F)cc1` had a cell count of 474 cells.

Regarding `CCN(CC)CCCC(C)Nc1c2ccc(Cl)cc2nc2ccc(OC)cc12` (stereo not drawn), the cell count stood at 750 cells.

For `Cc1nc2ccccc2n1-c1nc(-c2ccco2)cc(C(F)(F)F)n1`, the cell count was determined as 326 cells.

The compound `Cc1ccc(S(=O)(=O)Cc2ccc(C(=O)NCCCN3CCCC3=O)o2)cc1` yielded a cell count of 269 cells.

For `CN1/C(=C\C=N\NC(=O)c2ccc(O)cc2)C(C)(C)c2ccccc21`, the cell count worked out at 262 cells.

Compound `Cc1nc2c(-c3ccc(Cl)cc3)c(C)[nH]n2c(=O)c1Cc1ccccc1` came in with a cell count of 489 cells.

Take `CC(=O)Nc1sc(/C(C#N)=C\c2cccc(Cl)c2)nc1-c1ccc(C)cc1`: the cell count stood at 1360 cells.

With `CCCc1nnc(SCc2ccc(OCC)cc2)n1N`, the cell count is 442 cells.

`CCCCCc1ccc(OCCC[n+]2ccccc2)c(CCCCC)c1` had a cell count of 345 cells.

The compound `Cc1ccc(-c2c[n+](Cc3cccc(Cl)c3)c3n2CCC3)cc1` came in with a cell count of 467 cells.

In turn, `Cc1[nH]c2ccccc2c1Cc1nnc(SCC(N)=O)o1` registered a cell count of 1950 cells.

With `Cc1nc2ccc(S(=O)(=O)NC(C(=O)Nc3nc4ccc(Cl)cc4s3)C(C)C)cc2s1` (stereo not drawn), the cell count worked out at 311 cells.

In turn, `CCCCOc1ncnc2c1[nH]c1ccc(F)cc12` yielded a cell count of 340 cells.

`CCCCCCCCCCCCCCCC[n+]1cccc2ccccc21`: the cell count is 479 cells.

`CCc1ccc(OCC(=O)N/N=C(\C)c2ccccc2OC(F)F)cc1` returned a cell count of 438 cells.

`Cc1cc2cc(CN(CC3CCCO3)C(=S)Nc3ccccc3)c(=O)[nH]c2cc1C` (stereo not drawn) came in with a cell count of 371 cells.
